The source gives no read counts; variants with many changes may rest on few reads.
B1: LINE1-mini (parent)
chain: GGCAGAGCUCAACACAGCGUGGCAAAGUGGCUGUGGCUAGACUGCC

Variants of: B1
Experiment: self-cleavage, relative activity (ratio to wild type); higher = more cleavage; in vitro, sequencing; the parent is a self-cleaving ribozyme

Row | Variant | self-cleavage
1 | U20G G21U C42A | 0.82
2 | G17U C18G G19A | 0.02
3 | C3U G5U U9A C13A C23G G29U G40A A41U | 0.03
4 | U20C G21A G36U C37G A39U | 0.01
5 | C15G G21A G29A U32C | 0.02
6 | G7C C18U G22A U28A | 0.06
7 | C3U G5C C18A C46A | 0.05
8 | G7A C8G U9G A12G G19A U34C G35C | 0.02
9 | A4U C10U G29A | 0.1
10 | C8A C18U G44U | 0.19
11 | G22C A41C C45U C46G | 0.11
12 | C3U A11U U38A | 0.01
13 | G17U C31U U32A | 0.15
14 | C13U C15A C46G | 0.07
15 | G1U A4C C18U A39C | 0.05
16 | C13U C31G U34C | 0
17 | A25U C31U G36U C37A G40A C46A | 0.09
18 | A6C A12U G29C G36C C42G | 0
19 | C3G A6C A24C | 0.25
20 | G5U U20A G22U U32C G36U | 0.03
21 | G5C A26G G36U | 0.03
22 | G19C C37G C42U | 0.02
23 | C3U G30A G44C C45A | 0.08
24 | G7C A26U A39G | 0.06

Row | Variant | self-cleavage
25 | A11G G22U G35U | 0.01
26 | A25G G33C U43G | 0.05
27 | A11G G29A C42G | 0.05
28 | C3A C18G A25C C31G | 0.08
29 | C3A C15U G17A C18U G30C G40C | 0.04
30 | G30U U34G G40U | 0
31 | C3U A11C C15U | 0.03
32 | C10A G29A A39C | 0.01
33 | A11U C42A G44A | 0.03
34 | G2C C10A A24C U34A C42G G44U | 0.01
35 | A25U A26U U32C | 0.12
36 | G1A A11C A14U C31G | 0.04
37 | A4C U9G A12U A14G G17U | 0.1
38 | A26C C31A C46A | 0.37
39 | A4C G21U A41U | 0.05
40 | C3G G7U C37U | 0.04
41 | G27C A39C A41C C42U C45A | 0.01
42 | C23G A25U C42U | 0.74
43 | U20C U28C C31U | 0.36
44 | C3U G5U C23A G29C | 0
45 | G1A G2A A14C C45G | 0.51
46 | G2U C15A U34G G40U C45U | 0
47 | C10G C15U G19C G30C | 0.01
48 | A25G A26G U28A G40A | 0.23

Row | Variant | self-cleavage
49 | G2C A14U G21A | 0.04
50 | G17C C23A A25U G30U G33C A39U | 0.02
51 | C3U U32A C46U | 0.02
52 | C10A G33C G35A G44A | 0.02
53 | G7U U9G A12C G30A C37G | 0
54 | A25U U32G U38G | 0.02
55 | G2U A4G G29U | 0.03
56 | G17C C37A U38A | 0.06
57 | G2U C10U C23U A24U | 0.03
58 | G1C C18G G21A C37A | 0.05
59 | A14C G27A C46G | 0.09
60 | A12G G36A U38A | 0.07
61 | G7A C18G U32C | 0.11
62 | C10U U20G G36C | 0.04
63 | G7C G19U G21C | 0
64 | G5C G19U A41U G44A | 0.08
65 | G29U G30A G35A U38G | 0
66 | G1U C3G G21C G30C | 0.81
67 | A25C U34A C42U | 0
68 | C10A U28C C31G C42G | 0.01
69 | C13A A25U A39U C46A | 0.06
70 | C3U U9A A11C G17A G30A A39G | 0.02
71 | G17U G22A C31G | 0.76
72 | G5C G30A A41G G44A | 0.1

Row | Variant | self-cleavage
73 | A16U U20A G22C | 0.1
74 | A4C G22A G30C C45A | 0.08
75 | A14C G22U A39U | 0.04
76 | A6C U9C C31A C46A | 0.01
77 | G1C U9G G35U | 0.01
78 | C8A U9C A24U | 0.14
79 | A24U U32G C42A | 0.08
80 | C13U G40C U43G | 0.04
81 | G19U G22U A25G U28A A41U | 0.43
82 | G5U A14C C15A | 0.03
83 | C18U A26C G27U U34A | 0.03
84 | G27A U28C G29A A39G | 0.1
85 | G7A C10U C13G G29A | 0.13
86 | A24C A26C G36C | 0.12
87 | A4U A11C C31U A41G | 0.04
88 | G5C G35A C37U C46U | 0.02
89 | G17A U43C C46A | 0.04
90 | C10A G19A U20C G22U | 0.04
91 | A12U G33C G36A A41G | 0.04
92 | C3G U28A G36U | 0.15
93 | C23U A26U U38A G40U | 0.1
94 | A14C C18U U20A A24U | 0.01
95 | A12C C23U G27U G40U | 0.04
96 | A39U A41C C45A | 0.08

Row | Variant | self-cleavage
97 | A6C G7C A26U A41G | 0.19
98 | C3G G17C C18U U20C | 0.04
99 | C3G U20C G35A | 0.05
100 | C15U G40A U43A | 0.04
101 | G5U C8U C10A U43A C46U | 0
102 | A16C C23U G27U U38G | 0
103 | A14G G17A G27A C42A | 0.06
104 | U20C A25U C45A | 0.12
105 | U9C C18G G30C U38C | 0
106 | C10U C15U G36U | 0.05
107 | G1C C3G A4C A6C C10G | 0.03
108 | G2A G17U U20G C31A | 0.2
109 | A6U C10A G22U C46G | 0.03
110 | A12U C13A A16C G22U G35U C37U | 0.05
111 | G2A C23G G33C A39C | 0.02
112 | C10U U34C G44U | 0.02
113 | A4C C15A A39U | 0.05
114 | A11U A12C U28C C37A A41U C42U | 0
115 | A16G A26U U28C C31G C42U | 0.03
116 | A14U C15A G36U G40A | 0.07
117 | C23U G35U G44C | 0.03
118 | G5C G7A G22A G29A | 0.19
119 | G1U C13A G21U | 0.05
120 | C3G A11U C31G C45G | 0.01

Row | Variant | self-cleavage
121 | G29U G33A G40C U43C | 0.04
122 | A4U A11U G44U | 0.01
123 | A4G U38G G44C | 0.02
124 | C3A G22A A24C U28C G29U C31G U34A U38G | 0.03
125 | C31U U34G G44U | 0.01
126 | C3A C8A G35U A39G | 1.55
127 | A6U G19U C31U | 0.41
128 | G29U G30U C31A | 0.26
129 | G1U G5C C10A U28A | 0.01
130 | G7U U9A U38A A39U G44U | 0.01
131 | C8G C13U G29A G35C A41U U43C | 0.04
132 | G19U G22A G35U | 0.1
133 | A14C A26G A39C | 0.01
134 | C10U A14G G21U A26C C31G | 0.01
135 | A16G U38C C46U | 0.18
136 | G19U U32G G44U | 0.03
137 | C15G G22U G29U | 0.21
138 | A11C G35U A41G | 0.01
139 | C10U U20A G22C G27C | 0.12
140 | A6G C23U C42U | 0.21
141 | G1U G35C G44U | 0.02
142 | C8A C13U G19U U20G G36C | 0.72
143 | A4C C13G G22C G40C | 0.04
144 | G5U A12G C13A C18U A39C | 0.05

Row | Variant | self-cleavage
145 | C8A U20C C31A U32C | 0.05
146 | A14C G27A G36A | 0.1
147 | G1U C31A C46U | 0.06
148 | U9G C10A A24U | 0
149 | C8U A14U U28C | 0.08
150 | G7A C18A U38A C45A | 0.13
151 | G2A A16G U20A G27U | 0.1
152 | G1C C8G U20G U28C G29C G30U U34A | 0.01
153 | G17C C18U G22C G35C | 0.07
154 | C18G G35U C37G | 0.06
155 | G5C C13U G27A | 0.09
156 | A4C A6C C8U G33A U38C | 0.42
157 | C13G G33A C37A C42U | 0.01
158 | G5A C10U A14G | 0.22
159 | C13G G17U G19U U28A C31A G44U | 0
160 | G1A A12G A14C G36A | 0.03
161 | C8U A14G G29U | 0.17
162 | G19A G29A G36A | 0.52
163 | C13A G21U C31G C37A | 0.04
164 | G1U A25G C46U | 0.06
165 | G1C A16C G36C | 0.01
166 | A16G U20G U34A G40U | 0.02
167 | C8G U9C C10A C15U C18A G40U | 0.03

From the RNAGym collection of RNA variant scans (doi:10.7554/elife.90254)
